Data reported in PMC4336329 (PLoS ONE, 2015).
Hit rate of the full screen: of about 310,000 compounds, about 2,200 (0.71%) showed an effect of 50% or more. Effects have a minus sign here. Some of the results follow.

Target: human ether-à-go-go-related gene (hERG) potassium channel (human, UniProt Q12809)
Assay: primary screen, population patch clamp on CHO cells stably expressing hERG

Chain of human ether-à-go-go-related gene (hERG) potassium channel (Q12809 whole entry, looked up): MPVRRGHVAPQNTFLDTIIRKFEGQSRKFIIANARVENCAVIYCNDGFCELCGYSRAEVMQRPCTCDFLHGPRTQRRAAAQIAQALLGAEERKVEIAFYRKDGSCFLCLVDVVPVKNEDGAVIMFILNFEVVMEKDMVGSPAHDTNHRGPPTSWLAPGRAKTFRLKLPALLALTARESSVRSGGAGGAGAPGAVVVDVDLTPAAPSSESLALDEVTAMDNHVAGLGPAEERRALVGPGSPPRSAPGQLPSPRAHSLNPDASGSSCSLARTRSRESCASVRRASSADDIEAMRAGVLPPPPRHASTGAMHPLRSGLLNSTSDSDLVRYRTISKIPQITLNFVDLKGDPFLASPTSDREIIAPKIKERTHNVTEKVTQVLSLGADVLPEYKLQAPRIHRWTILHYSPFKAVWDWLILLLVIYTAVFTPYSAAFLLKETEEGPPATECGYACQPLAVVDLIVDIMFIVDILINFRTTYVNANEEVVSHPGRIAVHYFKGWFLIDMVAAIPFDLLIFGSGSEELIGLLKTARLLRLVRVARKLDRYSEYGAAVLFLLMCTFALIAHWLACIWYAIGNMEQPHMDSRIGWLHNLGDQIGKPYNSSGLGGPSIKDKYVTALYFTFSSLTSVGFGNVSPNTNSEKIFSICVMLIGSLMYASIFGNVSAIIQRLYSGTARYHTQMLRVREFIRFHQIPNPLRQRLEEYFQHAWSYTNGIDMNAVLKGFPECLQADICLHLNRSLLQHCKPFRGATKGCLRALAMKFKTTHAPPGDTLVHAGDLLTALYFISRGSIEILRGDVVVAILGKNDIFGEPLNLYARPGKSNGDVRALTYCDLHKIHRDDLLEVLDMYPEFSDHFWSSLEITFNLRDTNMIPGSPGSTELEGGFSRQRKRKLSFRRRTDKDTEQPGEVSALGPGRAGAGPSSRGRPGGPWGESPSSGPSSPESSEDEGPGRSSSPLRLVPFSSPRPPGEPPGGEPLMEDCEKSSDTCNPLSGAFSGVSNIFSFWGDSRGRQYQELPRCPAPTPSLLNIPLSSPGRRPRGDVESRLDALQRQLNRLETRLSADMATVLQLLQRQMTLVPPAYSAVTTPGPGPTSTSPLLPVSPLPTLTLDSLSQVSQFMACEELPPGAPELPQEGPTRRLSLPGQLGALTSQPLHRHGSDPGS

SMILES	hERG current change (%, negative = inhibition) at 1uM [%]
COc1ccc(C(=S)N2CCOCC2)cc1OC(=O)c1cc([N+](=O)[O-])c(C)c([N+](=O)[O-])c1	2.21
COc1cc(C(=S)N2CCOCC2)cc(OC)c1OC	7.25
Clc1cccc(N2CCNCC2)c1Cl	5.63
O=C(Nc1ccc(N2CCCC2)c(Cl)c1)c1ccc2c(c1)OCCO2	14.8
CC(NC(=O)COC(=O)/C(=C/c1cccs1)c1cccs1)c1ccccc1 (stereo not shown)	6
COc1ccc(C(=O)NC(=S)Nc2ccc(CN3CCCCC3)cc2)cc1Cl	-0.394
COc1ccc(CN2CCN(C(C)C(=O)N(C)Cc3cccc(F)c3)CC2)cc1OC.O=C(O)C(=O)O (stereo not shown)	-32
O=C(O)c1cccc(S(=O)(=O)Nc2cc(Cl)ccc2Cl)c1	10.1
CC(=O)N1CCN(c2ccc(NC(=O)c3cc(Cl)ccc3Cl)cc2)CC1	22.3
CC(=O)c1ccc(NC(=O)CN2CCC(NC(=O)C3CCCCC3)CC2)cc1	9.68
CN(C)CCN(C(=O)c1cccs1)c1nc2cc3c(cc2s1)OCCO3.Cl	7
CCC1CCCCN1C(=O)/C=C/c1ccc2c(c1)OCO2 (stereo not shown)	12.6
CC1CCN(CCCn2c(=S)[nH]c3c(sc4ccccc43)c2=O)CC1.Cl	3.44
O=C(CCOc1ccccc1)Nc1ccc(S(=O)(=O)Nc2ncccn2)cc1	6.12
O=C(CCCC(=O)OCC1CCCO1)OCC1CCCO1 (stereo not shown)	14
Cc1oc(-c2ccccc2F)nc1CS(=O)(=O)CC(=O)NCCCc1ccccc1	5.74
Cn1c(=O)c(=O)n(C)c2cc(S(=O)(=O)N3CCN(c4ccc(F)cc4)CC3)ccc21	-7.91
Cc1cc(C)cc(-n2ncc3c2CCCC3NC(=O)c2ccccc2N2CCOCC2)c1 (stereo not shown)	0.395
O=C(Cc1cccs1)N1CCN(S(=O)(=O)c2ccc(F)c(F)c2)CC1	6.65
CCOCCOC(=O)C(C)Sc1n[nH]c(=O)[nH]c1=O (stereo not shown)	9.71

SMILES	hERG current change (%, negative = inhibition) at 1uM [%]
Cc1cc(C)c2c(N)c(C(=O)N/N=C/c3ccccc3)sc2n1	8.88
Cc1ccc(Oc2c(CO)c(-c3ccccc3)nn2C)cc1	18.8
O=C(NCc1ccccc1C(F)(F)F)C1CC(c2cccc(F)c2)=NO1 (stereo not shown)	7.08
COc1ccc([C@H]2/C=C\CN(S(=O)(=O)c3ccc(C)cc3)[C@@H](C)C(=O)N2Cc2ccc(F)cc2)cc1	-9.9
COc1ccc(/C=N\NC(=O)c2c(C)nc3ccc(Br)cn23)cc1	12.3
O=C(N/N=C/c1ccc(-c2ccccc2Cl)o1)c1ccccc1	12.1
Nc1ccnn1Cc1ccncc1	3.93
COc1ccc(CCNC(=O)CN(c2ccc(OC)c(OC)c2)S(=O)(=O)c2ccccc2)cc1OC	6.64
CCOC(=O)c1cc(C#N)c(Nc2ccc(C)cc2)nc1C(F)(F)F	12.3
COc1ccc(NC(=O)Nc2ccc(OC)c(OC)c2)c([N+](=O)[O-])c1	16
O=C(COC(=O)c1n[nH]c2ccccc12)c1cc(F)ccc1F	3.18
COc1ccc(CCC(=O)N2CCN(C3CCCCC3)CC2)cc1	-56.7
CC(=O)c1csc(CS(=O)(=O)c2ccccn2)n1	12.9
Cc1c(Cl)cccc1NC(=O)CCC(=O)N/N=C/c1ccc[nH]1	6
COc1ccc(-c2csc(NCCc3nc4cc(Cl)c(N5CCCCC5)cc4n3CCOCCO)n2)cc1	4.7
Cc1ccc(-c2nn(C)c(=O)c3ccccc23)cc1CNC(=O)c1ccccc1	13.4
COc1ccc(NS(=O)(=O)c2csc(C(N)=O)c2)cc1	11.5
O=S(=O)(C(=CNc1ccccc1)S(=O)(=O)c1ccccc1)c1ccccc1	4.9
COc1ccccc1NC(=O)NC1(C(=O)N2CCN(C)CC2)CCCCC1	17.5
CCCc1cc(C(=O)NC2CCCC2)no1	5.63

SMILES	hERG current change (%, negative = inhibition) at 1uM [%]
Cc1cc(C(=O)OCC(=O)NC2CC2)c2ccccc2n1	8.14
O=C(NCc1ccco1)C1CC(c2ccc(Cl)cc2)=NO1 (stereo not shown)	12
Cc1nc2ccccc2c(=O)n1/N=C1\C(=O)N(C)c2ccccc21	14.8
CCOc1ccc(N2C(=O)c3cccnc3C2Nc2ccc(OC)cc2)cc1 (stereo not shown)	1.01
O=C(Nc1cccc(C(F)(F)F)c1)c1cc2c(=O)c3ccccc3oc2nc1C(F)(F)F	-0.311
COc1cc2c(cc1OC)C1C/C(=N\O)C(CC(C)C)CN1CC2 (stereo not shown)	15.2
O=C(Nc1ccc(-n2cc(Cl)cn2)cc1)c1ccncc1	11.7
Cn1c(COc2ccccc2)nnc1SCCN1CCOCC1	8.68
CCOP(=O)(c1ccccc1)C1(O)CCCCC1 (stereo not shown)	2.31
CN(C)C(=O)CSc1nc(SCC(=O)N(C)C)n(-c2ccccc2)n1	8.32
CC(C)OCCCn1c(=S)[nH]c2ncccc2c1=O	18
CC(C)CC(C(=O)NC(C)(C)C)N(Cc1cccs1)C(=O)c1snc(C(N)=O)c1N (stereo not shown)	1.03
Cc1cccc(N2CCN(C(=O)c3ccc4c(c3)OCCO4)CC2)c1C	14
C=CCN(C(=O)COc1ccccc1)c1nnc(-c2ccncc2)s1	9.5
CN(C)c1ccc(-c2ccccc2)nn1	22.1
O=C(OCC(=O)N1CCOCC1)c1cccc(F)c1	17.6
Cc1ccc(C(=O)NC(=O)CSc2nncn2C)cc1	8.94
Clc1ccc2[nH]c3c(c2c1)CCc1cn[nH]c1-3	1.26
